What was measured:
Assay in all cases: FRET or BRET; steady-state retention of PCNA-Cy3 (500 nM) on nicked DNA-Alexa Fluor 647 (500 nM, 3' ddC, one end blocked with 1 uM NeutrAvidin) pre-bound to Lig1 or variants; FRET between PCNA-Cy3 and the DNA; excitation 480 nm, 22 °C; deconvoluted Alexa Fluor 647 amplitude above baseline
Conditions in all cases: both partners purified
[1] = target: T1, N-terminus deleted Lig1 (residues 233-919) (human, UniProt P18858 233-919)
T1 construct: source: E. coli BL21 (DE3), purified (HisTrap, HiTrap Blue, SUMO protease, HisTrap flow-through, Superdex 200)

[2] = target: T2, full-length human DNA Ligase 1 (Lig1), wild type (human, UniProt P18858 1-919)
T2 construct: residues 1-919; also called Lig1_WT; source: E. coli BL21 (DE3), purified (phosphocellulose, HiTrap Q, HiTrap Blue, Superdex 200)

[3] = target: T3, Lig1 Q390A/R391A/L392A/M393A/L394A mutant (human, UniProt P18858 1-919, Q390A | R391A | L392A | M393A | L394A)
T3 construct: Generated by PCR from Lig1_WT; also called Lig1_QRLML; source: E. coli BL21 (DE3), purified (phosphocellulose, HiTrap Q, HiTrap Blue, Superdex 200)

- binding result [1]: binds
- binding result [2]: binds
- binding result [3]: binds
B1: Cy3-labeled PCNA N107C (natural protein)
chain: not shown
modifications: Cy3 maleimide label, final stoichiometry 3:1 Cy3 to PCNA trimer
notes: human PCNA with N107C, labeled with Cy3 maleimide; also called PCNA-Cy3

— publication PMC9767926, “Mechanism of human Lig1 regulation by PCNA in Okazaki fragment sealing” (Nature Communications, 2022)
